# In all, about 3,600 compounds were measured (“viability index relative to DMSO control”: median about 0.81, lowest 2% from about 0.13 on). The list shows a part of the results.
# Tested on: Plasmodium falciparum NF54 stage V gametocytes
# Assay: viability index relative to DMSO control (fraction); higher = less gametocyte killing
# Settings: 1.25 µM, incubation time: 72 h
# 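Also: 384-well serum-free SaLSSA: MitoTracker Red CMXRos staining with saponin lysis, high-content imaging, treated-well particle count divided by plate-mean count of DMSO wells.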
row,Structure (SMILES),viability index
1,Oc1ccc(-c2ccc3c(c2)OCO3)cc1CNCC1(N2CCCCC2)CCCCC1,0.365
2,CC(C)C1Oc2cc3oc(=O)ccc3cc2C1=NO (centres undefined),0.842
3,CCOc1ccccc1NC(=O)Cn1c(=O)n(Cc2ccccc2)c(=O)c2c(C)c(C(=O)N(C)C)sc21,0.83
4,CN(C)c1nc(Cl)nc(N(C#N)CCOc2ccccc2)n1,0.71
5,S=C(NCc1ccco1)NC1CC2CCC(C1)N2Cc1ccccc1 (centres undefined),1.32
6,O=C(NC1CC1)c1ccc(N2CCC(Cc3ccccc3)CC2)c([N+](=O)[O-])c1,0.664
7,Cc1onc(-c2ccccc2Cl)c1C(=O)Nc1cc(Cl)ccc1Cl,0.71
8,CCCCCSc1scc(-c2ccc(O)c(O)c2)[n+]1C,0.973
9,COc1ccccc1C(=O)NN=C(C)c1cccnc1,0.947
10,CN(C)CCCNC1=NC=NC2C=C(Cl)C=CC12 (centres undefined),0.945
11,COc1cccc(NC(=O)C2C3C=CC4(O3)C2C(=O)N(Cc2ccc3c(c2)OCO3)C4C(=O)NC2CCCCC2C)c1 (centres undefined),0.896
12,CCOC(=O)C1=C(C)NC(=Cc2cc(C)n(-c3ccc(C)cc3C)c2C)C1=O,0.494
13,CCOC(=O)C1=C(C)NC2=C(C(=O)CC(c3ccc(OC)c(OC)c3)C2)C1c1ccc(F)cc1 (centres undefined),0.629
14,CC(=O)Nc1cc(C(F)(F)F)cc(C(F)(F)F)c1,0.697
15,COc1ccc(CN(Cc2ccc(C(C)C)cc2)S(=O)(=O)c2ccc(S(=O)(=O)N3CCN(c4ccccc4F)CC3)cc2)cc1,1.01
16,COc1ccc(C2=C(Nc3ccc(C)c(C)c3)c3ccccc3C2=O)cc1,0.647
17,Clc1ccccc1C(c1ccccc1)(c1ccccc1)n1ccnc1,0.979
18,CN(C)c1ccc(C2Nc3ccccc3NC3=C2C(=O)CC(C)(C)C3)cc1 (centres undefined),1.09
19,O=[N+]([O-])c1ccc(N2CCN(c3nc(NCCc4c[nH]c5ccccc45)c4ccccc4n3)CC2)cc1,0.763
20,Cc1cc(C=C2SC(=Nc3ccccc3)N(C3CCCCC3)C2=O)c(C)n1-c1ccc(F)cc1,0.606
21,CCCOC(=O)C1=C(C)NC2=C(C(=O)CC(c3ccc(OC)c(OC)c3)C2)C1c1ccc(Br)cc1 (centres undefined),0.421
22,O=C(CCl)Nc1ccc(OC(F)F)cc1,0.533
23,CCCCOc1cccc(NC(=O)CSC2=C(C#N)C(c3ccccc3)C(C(=O)Nc3ccccc3)=C(C)N2)c1 (centres undefined),0.5

row,Structure (SMILES),viability index
1,CCOc1cc(C=NN=C(N)N)ccc1OCc1ccccc1,0.404
2,COc1ccc(CCNc2ncnc3c2[nH]c2ccccc23)cc1,0.547
3,CC1Cc2ccc(F)cc2CN1C(=O)c1ccc(COc2ccccc2Br)o1 (centres undefined),0.842
4,O=C(NC(C(=O)c1ccccc1)N1CCCCC1)c1ccco1 (centres undefined),0.946
5,CCN(CC)CCCC(C)Nc1nc(C=Cc2ccccc2OC)nc2cc(Cl)ccc12 (centres undefined),0.712
6,CCN1C(=CC=CC2=[N+](C)c3ccc(C)cc3C2(C)C)C=Cc2ccccc21,0.359
7,CCOC(=O)C1=C(C)NC2=C(C(=O)C(C(=O)OC)C(C)C2)C1c1cc(Br)c(OCC)c(OC)c1 (centres undefined),0.534
8,COc1ccc2sc(Nc3nc(-c4ccccn4)cs3)nc2c1,0.876
9,Cn1cnnc1SCC(=O)Nc1ccccc1C(F)(F)F,0.743
10,COC(=O)C1=C(C)NC2=C(C(=O)CC(c3ccccc3Cl)C2)C1c1ccc([N+](=O)[O-])cc1 (centres undefined),0.302
11,Cc1c2ccccc2cc(Cc2ccccc2)[n+]1C,0.76
12,CC1(C)C(=O)C2(CCCCC2)C(=O)OC1C=Cc1ccccc1 (centres undefined),0.596
13,COc1cccc(-c2ccc(O)c(CNC(C)c3cccc4ccccc34)c2)n1 (centres undefined),0.519
14,CCN(C(C)=O)C1=C(N2CCOCC2)C(=O)c2ccccc2C1=O,0.538
15,COc1cc(C=NNC(=O)c2ccco2)ccc1OCc1ccc([N+](=O)[O-])cc1,0.992
16,COC(=O)c1cnn(-c2ccccc2)c1C=NOC(=O)c1ccccc1,0.975
17,CCN1C(=Cc2cccc[n+]2C)C=Cc2ccccc21,1.01
18,Cc1cn2c3ccccc3n(CCN3CCOCC3)c2n1,0.76
19,N#Cc1ccc(-c2cnc(N)c(-c3ccc(C(N)=O)cc3)n2)cc1,0.232
20,CCOC(=O)C1=C(C)N=c2sc(=Cc3cc(Cl)ccc3O)c(=O)n2C1c1ccc2c(c1)OCO2 (centres undefined),0.764
21,N#CC(=Cc1ccccc1OCc1ccc(Cl)cc1Cl)c1nc2ccccc2[nH]1,0.521
22,Cc1c(Cl)cccc1NCC(=O)NN=C1CCCC1,0.779
23,N#Cc1cc2[nH]c3ccccc3c2n(-c2ccc([N+](=O)[O-])cc2)c1=N,0.838

row,Structure (SMILES),viability index
1,COc1ccc(-c2c[n+](CC(=O)c3ccccc3)c3n2CCC3)cc1,0.951
2,CCOC(=O)c1nnn(-c2nonc2N)c1-c1ccc(Br)cc1,0.676
3,CCOC(=O)N1CCC(N2C(=O)c3ccccc3C2Nc2ccc(OCC)cc2)CC1 (centres undefined),0.988
4,COc1ccc(NC(=O)CN2CCN(S(=O)(=O)c3cccc([N+](=O)[O-])c3)CC2)c(OC)c1,0.909
5,COC(=O)C1=C(C)NC(=Cc2cc(C)n(-c3ccc(Cl)c(Cl)c3)c2C)C1=O,0.812
6,CCN(C(=O)CSc1nc(-c2ccc(C(C)C)cc2)no1)c1cccc(C)c1,0.699
7,COC(=O)c1c(OCc2ccc(F)cc2)cc(=O)n2c1CCN(Cc1ccccc1)CC2,1.12
8,COc1ccc2oc(=O)c(C(=O)N(C)c3ccc(S(N)(=O)=O)cc3)cc2c1,0.906
9,COc1ccc(C=NN=C2NC(=O)C(CC(=O)Nc3ccccc3)S2)cc1OC (centres undefined),0.898
10,Oc1ccc(C2Nc3ccc4ccccc4c3C3C=CCC32)cc1 (centres undefined),0.808
11,C=CCOC(=O)C1=C(C)N2CCSC2=C(C#N)C1c1ccco1 (centres undefined),1.13
12,CC(C)(C)NCC(O)Cn1c2ccc(Br)cc2c2cc(Br)ccc21 (centres undefined),0.647
13,COc1ccc(C2Nc3ccc([N+](=O)[O-])cc3C3C=CCC32)cc1[N+](=O)[O-] (centres undefined),0.649
14,O=C(NN=Cc1cccc(Cl)c1)C1COc2ccccc2O1 (centres undefined),0.928
15,O=C(NCc1ccco1)C1CCN(S(=O)(=O)c2ccc(Cl)cc2)CC1,0.796
16,Cc1ccc2nc(Cl)c3cc(C(=O)Nc4ccc(CN5CCC(C)CC5)cc4)sc3c2c1,0.795
17,Clc1ccc2c(c1)CN(C1CCCCC1)CO2,0.988
18,COC(=O)c1ccc(NC(=O)CSc2nc3cc4c(cc3cc2C#N)OCCO4)cc1,0.753
19,Cn1nc(C(F)(F)F)c(-c2ccc(Br)cc2)c1NC(=O)Nc1ccc(F)cc1F,0.772
20,CCC(=O)N(C)CCCNc1ccnc2cc(Cl)ccc12,0.69
21,CCOC(=O)c1ccc(-n2c(C)cc(C=C3SC(=Nc4ccc(Cl)cc4)NC3=O)c2C)cc1,0.88
22,OC(CNCC1CCCO1)Cn1c2ccc(Br)cc2c2cc(Br)ccc21 (centres undefined),0.409
23,Fc1ccc(Nc2nc(OC(C(F)(F)F)C(F)(F)F)nc(OC(C(F)(F)F)C(F)(F)F)n2)cc1,0.776

row,Structure (SMILES),viability index
1,CCOc1cc(C2CC(=O)NC3=C2C(=O)CC(c2ccc(OC)cc2)C3)cc(Cl)c1O (centres undefined),1
2,CC(=O)Nc1ccc(NC2=C(N3CCCCC3)C(=O)c3ccccc3C2=O)cc1,0.355
3,CCOC(=O)C1=C(C)NC2=C(C(=O)CC(C)(C)C2)C1c1cc(I)sc1SC (centres undefined),1.04
4,Cc1ccc(-c2nnc(Nc3ccc(F)cc3)c3ccccc23)cc1S(=O)(=O)NCC1CCCO1 (centres undefined),1.01
5,CCc1ccc(C(Nc2cc(C)ccn2)c2ccc3cccnc3c2O)cc1 (centres undefined),0.741
6,O=C1c2cccc(N3CCN(Cc4cccn4-c4nccs4)CC3)c2C(=O)N1Cc1ccc(Cl)cc1,1.06
7,O=C1CSC(=S)N1c1cccc(Cl)c1,0.88
8,COc1ccc(C2CC(=O)C3=C(C2)NC(C)=C(C(=O)OC2CCCCC2)C3c2ccc([N+](=O)[O-])cc2)cc1OC (centres undefined),0.761
9,OC1=C2C(=Nc3ccccc3SC2c2ccco2)c2ccccc21 (centres undefined),0.584
10,CCCCN(CCCC)CCCNc1ncnc2c1[nH]c1ccc(Cl)cc12,0.919
11,Cc1ccc(C=NNC(=O)c2nnn(-c3nonc3N)c2-c2ccc([N+](=O)[O-])cc2)cc1,0.623
12,CCCOC(=O)C1=C(C)NC2=C(C(=O)CC(c3ccc(OC)c(OC)c3)C2)C1c1ccccc1F (centres undefined),0.564
13,CC(=O)N(C)C1=C(N2CCCCCC2)C(=O)c2ccccc2C1=O,0.39
14,Cc1ccc(CN2CCC(O)(c3ccc4oc(C(=O)NCCc5cccc(F)c5)cc4c3)CC2)cc1,1.25
15,CCOC(=O)C1=C(C)NC2=C(C(=O)CC(c3ccc(OC)cc3)C2)C1c1ccccc1F (centres undefined),1.03
16,O=C(Cc1ccccc1)N1CCOc2c(cc(-c3csc4ccccc34)cc2OCCc2ccccn2)C1,0.385
17,COc1ccc(CNc2cc(-c3ccc(F)c(F)c3)nc3ccnn23)cc1,1.08
18,CC(C)(C)c1ccc(C(=O)C[n+]2cc(-c3ccccc3)n3c2CCC3)cc1,0.852
19,Cc1cccc(OC(C)C(=O)N2CCc3ccccc32)c1 (centres undefined),1.13
20,CCOC(=O)C1=C(c2ccccc2)N=c2sc(=Cc3c(C)n(Cc4ccc(F)cc4)c4ccccc34)c(=O)n2C1c1cccc(OC)c1OC (centres undefined),0.822
